# Test results reported in the supplement of paper PMC12217912.
# This is one part of the list. The full chains were built here from the parent and the listed change. Inactive controls read about 0.05.
# B1: TEV protease; numbered along this chain (parent)
# chain: MGESLFKGPRDYNPISSSICHLTNESDGHTTSLYGIGFGPFIITNKHLFRRNNGTLVVQSLHGVFKVKDTTTLQQHLVDGRDMIIIRMPKDFPPFPQKLKFREPQREERICLVTTNFQTKSMSSMVSDTSCTFPSGDGIFWKHWIQTKDGQCGSPLVSTRDGFIVGIHSASNFTNTNNYFTSVPKNFMELLTNQEAQQWVSGWRLNADSVLWGGHKVFMVKPEEPFQPVKEATQL
# Variants of: B1
# Test: raw area under fraction-flipped curve 0-4 h after induction (AUC4h, not background-subtracted), DNA-recorder readout of cleavage of the substrate (dimensionless); higher = more cleavage of the substrate by the protease variant
# Details: temperature: 34 °C; time window: 0-4 h after rhamnose induction
# Method: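 In vivo DNA recorder in E. coli TOP10(DE3) ΔrhaA at 34 °C. Each TEVp single-site mutant (parent TEVp 0) is paired with a single-site variant of the 7-mer TEVs (canonical ENLYFQ|S). The substrate sits between flexible linkers in a Bxb1-sfGFP-TEVs-SsrA fusion, so cleavage stabilises Bxb1 and speeds flipping of a recombination array, read by NGS. The value is the raw area under the fraction-flipped curve over 0-4 h after rhamnose induction (AUC4h), with ≥20 reads per time point. It is not background-subtracted; inactive controls average about 0.047.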
# 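Further: Bxb1 expression induced with 0.2% (w/v) L-rhamnose at OD600 near 0.5, cultures sampled hourly, flipped fraction per protease–substrate barcode pair counted by paired-end Illumina sequencing.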
Variant,area with substrate ENLAFQS,area with substrate ENLCFQS,area with substrate ENLDFQS,area with substrate ENLEFQS,area with substrate ENLFFQS,area with substrate ENLHFQS,area with substrate ENLKFQS,area with substrate ENLMFQS,area with substrate ENLNFQS,area with substrate ENLPFQS,area with substrate ENLQFQS,area with substrate ENLRFQS,area with substrate ENLSFQS,area with substrate ENLTFQS,area with substrate ENLVFQS,area with substrate ENLGFQS,area with substrate ENLWFQS,area with substrate ENLLFQS,area with substrate ENLIFQS
F49S,0.0544,0.0533,0.0524,0.0538,0.0592,0.0329,0.0552,0.0637,0.0558,0.0619,0.0494,0.0655,0.0556,0.0497,0.0564,,,,
S60A,0.0642,0.0681,0.0619,,0.0762,0.0534,0.0744,0.0864,0.0682,0.044,0.0435,0.0864,0.0528,,0.0777,0.048,0.0572,,
V67H,0.0602,0.0811,0.0533,0.0549,0.0218,,0.0759,0.0618,0.0599,0.0878,0.0599,0.0612,0.0609,,,,,0.0729,
K46D,0.0528,0.0657,0.061,0.0528,0.0807,0.0563,0.0606,0.0615,0.0621,0.0609,0.061,,0.035,0.0454,0.0575,0.0658,0.0623,0.0552,0.0462
K66T,0.0619,0.0779,0.0513,0.0709,0.0845,,0.0821,,0.0727,,,0.0478,,0.0502,,0.0673,0.0685,,0.0791
P104E,0.0682,0.0464,0.0626,0.0492,0.0497,0.0484,0.115,0.0267,0.0522,0.0468,,0.0517,0.0607,,,,,,0.0643
P104Q,0.0553,,0.0527,0.0411,0.0701,,,,0.0472,,0.0128,0.0402,0.0459,,,,0.0517,,
G54D,0.0633,0.0695,0.0565,0.0647,0.0556,0.062,0.0669,0.0696,0.0615,0.0838,0.0599,0.0633,0.0663,,0.0786,,,0.0592,0.0579
T70V,0.0453,0.0664,0.0484,,0.08,0.0609,0.0682,,0.0538,0.0635,0.0454,,0.0785,,0.0654,0.0838,0.0694,0.0507,0.0729
T70Y,0.0616,0.056,0.0649,0.0691,0.0692,0.0794,0.0573,,0.0719,0.0585,0.0614,0.0651,0.0691,,,,0.072,0.0614,0.0754
V57C,0.0647,0.0673,0.0643,,0.0749,0.0751,0.092,,0.0541,0.0639,0.0765,0.0646,0.0642,,0.0746,,,0.0852,0.072
V57D,0.0773,0.0717,0.0706,,0.0955,0.0924,0.0747,,0.0575,,,,,,0.0865,,,0.0507,
